The values that follow come from PubChem BioAssay AID588579 (National Center for Advancing Translational Sciences (NCATS), 2011).

“And” between values parts separate entries of the source, which are not always exact repeats. Equal values may be shown once. Out of some 400,000 compounds screened, about 2,200 (0.55%) were called active. Not shown: some 1% with an inconclusive outcome. Calls come from the whole dose curve; as a rule, active = well fitted inhibition curve with a large enough effect; inconclusive = small, poorly fitted or top-dose-only effect, or another doubt; inactive = no such curve, though single readings can be large or run the other way. The list shows a part of the results, in another mix than the full data. Where a structure was tested more than once in an assay, its records may differ in their call. Non-standard residues stand in square brackets, D forms with d. Residues, ends and D or L forms follow the SMILES beside them. Phe(4-NH2) = Nc1ccc(C[C@H](N)C(=O)O)cc1
% is set by controls: 0 for no effect and ±100 for the full control effect; potency is the fitted concentration of half-maximal effect.

For the experiment, the target named is DNA polymerase kappa (Homo sapiens) (UniProt Q9UBT6). The experiment can be described thus: qHTS for Inhibitors of Polymerase Kappa. The note with it: purified Pol kappa, fluorescent DNA synthesis assay, 10 min; series mostly up to 107 µM; activity, negative = inhibition: at the top concentration. The procedure, abridged: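 Pol kappa 10 nM + cpd, 15 min RT; start w/ substrate 50 nM final; fluorescence kinetic read, 0 and 10 min. Neg ctrl: buffer, no enzyme.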
UniProt Q9UBT6, sequence (Q9UBT6 whole entry, looked up): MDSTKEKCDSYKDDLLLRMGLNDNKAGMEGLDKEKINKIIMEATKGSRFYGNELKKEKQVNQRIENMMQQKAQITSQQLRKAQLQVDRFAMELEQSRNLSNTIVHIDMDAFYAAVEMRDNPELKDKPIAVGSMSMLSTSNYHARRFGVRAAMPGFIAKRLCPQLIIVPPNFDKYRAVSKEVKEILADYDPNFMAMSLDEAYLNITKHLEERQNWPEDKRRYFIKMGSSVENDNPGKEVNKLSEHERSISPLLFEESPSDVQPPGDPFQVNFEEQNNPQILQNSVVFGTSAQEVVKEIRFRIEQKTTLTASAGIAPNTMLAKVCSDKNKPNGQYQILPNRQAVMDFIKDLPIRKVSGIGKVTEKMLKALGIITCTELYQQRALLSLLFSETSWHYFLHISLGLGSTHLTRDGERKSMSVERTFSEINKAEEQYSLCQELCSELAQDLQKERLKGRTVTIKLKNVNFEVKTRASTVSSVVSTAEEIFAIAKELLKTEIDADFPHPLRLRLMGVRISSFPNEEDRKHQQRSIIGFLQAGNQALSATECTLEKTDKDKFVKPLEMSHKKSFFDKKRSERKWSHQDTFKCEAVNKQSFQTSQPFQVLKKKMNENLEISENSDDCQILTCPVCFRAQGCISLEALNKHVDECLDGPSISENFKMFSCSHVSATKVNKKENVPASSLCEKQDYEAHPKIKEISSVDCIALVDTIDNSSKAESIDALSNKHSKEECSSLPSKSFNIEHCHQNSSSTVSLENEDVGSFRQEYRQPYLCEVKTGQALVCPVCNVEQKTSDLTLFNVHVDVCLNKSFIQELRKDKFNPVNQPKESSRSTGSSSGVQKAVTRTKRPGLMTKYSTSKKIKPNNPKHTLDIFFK
(In general: Quantitative high-throughput screening tests each substance at several concentrations.)
For `O=C(/C=C/c1ccc(Br)cc1)c1ccc(NC(=O)c2ccco2)cc1`, the “activity, negative = inhibition” value is inactive: -6.27%. Still for that read-out and setting: the same measure for `O=C1OCCN1C(=O)[C@H]1[C@H](c2ccc(Cl)cc2)C(c2cccc(Cl)c2)=NN1c1ccccc1`: inactive: -14%; for `CC(C)NC[C@@H](O)COc1ccc(COCCOC(C)C)cc1`: inactive: -8.42% [at 12 µM] and inactive: -5.51% [at 19.4 µM]. Turning to `Cc1cc(/C=C2\SC(=S)NC2=O)c(C)n1C`, the Potency was active: 79.4 µM.

As for `CC[C@@H](C)[C@H]1O[C@]2(CC[C@H]1C)C[C@@H]1C[C@@H](CC=C(C)[C@@H](O[C@H]3C[C@H](OC)[C@@H](O[C@H]4C[C@H](OC)[C@@H](O)[C@H](C)O4)[C@H](C)O3)[C@@H](C)C=CC=C3CO[C@@H]4[C@H](O)C(C)=C[C@@H](C(=O)O1)[C@]34O)O2`, the “activity, negative = inhibition” value was inactive: -12.9% [at 60.1 µM]. On the same count and under the same terms, then `CN(C)c1ccc(O)c2c1C[C@H]1C[C@H]3[C@@H](N(C)C)C(=O)C(C(N)=O)=C(O)[C@]3(O)C(=O)C1=C2O`, with inactive: -4.16% [at 12 µM]. With `COc1cc(OC)cc(C(=O)Nc2nnc(NC(=S)Nc3ccccc3)s2)c1`, the Potency was active: 79.4 µM.

Take `CCC(=O)OCC(=O)C1(OC(=O)CC)[C@H](C)C[C@H]2[C@H]3[C@H]([C@@H](O)C[C@@]21C)[C@@]1(C)C=CC(=O)C=C1C[C@H]3Cl` (stereo partly specified): the “activity, negative = inhibition” value is inactive: -19.6%. With `C=CC[C@@H]1/C=C(\C)C[C@H](C)C[C@H](OC)[C@H]2O[C@@](O)(C(=O)C(=O)N3CCCC[C@H]3C(=O)O[C@H](/C(C)=C/[C@@H]3CC[C@@H](O)[C@H](OC)C3)[C@H](C)[C@@H](O)CC1=O)[C@H](C)C[C@@H]2OC`, the Potency result was “inactive”. Turning to `O=C1ON=C(c2ccccc2)/C1=C\c1ccco1`, the “activity, negative = inhibition” value is inactive: -18.6%. The same measure, in the same setting: then `O=C(C[C@H]1C/C=C\CC[C@@H](Cc2ccc(F)cc2)C(=O)O[C@H](c2ccccc2)CNC1=O)N[C@H](CO)Cc1ccccc1`, with inactive: -4.87%. Consider `CC1(C)CC(=O)C2=C(C1)OC(N)=C(C#N)C2c1ccc[nH]1` (stereo unspecified), for which the Potency is active: 79.4 µM. With `C=CCSC1=N/C(=C\C=C\c2ccco2)C(=O)S1`, the Potency was active: 14.1 µM. As to `CN1CCCC1CCOC(C)(c1ccccc1)c1ccc(Cl)cc1` (stereo unspecified), the “activity, negative = inhibition” value is inactive: -5.89%.

`FC(F)(F)C1=Nc2cccc3cccc(c23)N1`: the Potency was active: 6.31 µM. Take `CCOc1[nH]c(/N=C/c2ccco2)c(C#N)c1C#N`: the “activity, negative = inhibition” value was inactive: -9.88%.

Take `CC(C)NCC(O)COc1ccc(COCCOC(C)C)cc1` (stereo unspecified): the Potency result was “inactive”. With `CC(C)C[C@H](NC(=O)[C@@H](Cc1c[nH]c2ccccc12)NC(=O)[C@H](Cc1ccc(O)cc1)NC(=O)[C@H](CO)NC(=O)[C@H](Cc1c[nH]c2ccccc12)NC(=O)[C@H](Cc1cnc[nH]1)NC(=O)[C@@H]1CCC(=O)N1)C(=O)N[C@@H](CCCN=C(N)N)C(=O)N1CCC[C@H]1C(=O)NCC(N)=O`, the “activity, negative = inhibition” value was inactive: 14.1% [at 60.1 µM]. Same read-out and setting: then `Nc1nc(=S)c2ncn([C@@H]3O[C@H](CO)[C@@H](O)[C@H]3O)c2[nH]1`, with inactive: 7.55%; and `Cc1ccc(S(=O)(=O)N2CCC(=O)N(C(COCc3ccc(C(F)(F)F)cc3)Cc3ccccc3)CC2)cc1` (stereo unspecified), with inactive: -7.13%. Turning to `Cc1cc(C(=O)COC(=O)c2cc(Cl)c(O)c(Cl)c2)c(C)n1C`, the Potency was active: 79.4 µM. `O=C(O)c1ccc(-c2c3nc(c(-c4ccc(C(=O)O)cc4)c4ccc([n-]4)c(-c4ccc(C(=O)O)cc4)c4nc(c(-c5ccc(C(=O)O)cc5)c5ccc2[n-]5)C=C4)C=C3)cc1.[Mn+3]`: the “activity, negative = inhibition” value is inactive: 0.818% [at 60.1 µM]. On to `O=c1cc(-c2ccc(O)cc2)oc2cc(O)cc(O)c12`, for which the Potency entry was “inactive”.

In the case of `Cc1ccccc1N=C(N)Nc1ccccc1C`, the activity, negative = inhibition is inactive: -17.1% [at 19.4 µM] and inactive: -5.32% [at 19.4 µM]. The same measure, in the same setting: the same measure for `CCOC(=O)C1OC1C(=O)NC(CC(C)C)C(=O)NCCC(C)C` (stereo unspecified): inactive: 2.58% [at 19.4 µM]; for `CC(C)CCNC(=O)c1cnc2sc(N3CCCCCC3)nn2c1=O`: inactive: 32.4%; for `CN(C)CCC[C@]1(c2ccc(F)cc2)OCc2cc(C#N)ccc21`: inactive: -2.99%. As for `NC(=O)c1cc(S(=O)(=O)NCc2cccc(Br)c2)cs1`, the Potency result was “inactive”. For the molecule `COc1cc2c(C#N)c(N3CCCC3)nc(N)c2c(N)n1`, the “activity, negative = inhibition” value is inactive: -23%. For `CC1(C)OC(=O)C(=Cc2ccc(-c3ccc(Cl)c(C(=O)O)c3)o2)C(=O)O1`, the Potency is active: 39.8 µM. With `CC(C)C[C@H](NC(=O)CNC(=O)[C@H](CCC(N)=O)NC(=O)[C@H](CC(C)C)NC(=O)[C@H](CC(C)C)NC(=O)[C@H](CCCNC(=N)N)NC(=O)[C@H](CCC(N)=O)NC(=O)[C@H](CC(C)C)NC(=O)[C@H](CCCNC(=N)N)NC(=O)[C@H](C)NC(=O)CNC(=O)[C@H](CCC(=O)O)NC(=O)[C@H](CCCNC(=N)N)NC(=O)[C@H](CC(C)C)NC(=O)[C@H](CCCNC(=N)N)NC(=O)[C@H](CO)NC(=O)[C@H](CC(C)C)NC(=O)[C@H](CCC(=O)O)NC(=O)[C@H](CO)NC(=O)[C@@H](NC(=O)[C@H](Cc1ccccc1)NC(=O)[C@@H](NC(=O)CNC(=O)[C@H](CC(=O)O)NC(=O)[C@H](CO)NC(=O)[C@@H](N)Cc1cnc[nH]1)[C@@H](C)O)[C@@H](C)O)C(=O)N[C@H](C(N)=O)C(C)C`, the “activity, negative = inhibition” value was inactive: 19.8% [at 60.1 µM]. Same read-out and setting: then `COc1cc2cc3c4cc(OC)c(OC)cc4cc[n+]3c(C)c2cc1OC`, with inactive: -13.5% [at 12 µM]. Consider `Cc1ccc(S(=O)(=O)c2cc(Nc3ccccc3)ccc2O)cc1`, for which the Potency is active: 39.8 µM. Take `CC[C@H](C)[C@H](NC(=O)[C@H](Cc1ccc(O)cc1)NC(=O)[C@@H](NC(=O)[C@H](CCCN=C(N)N)NC(=O)[C@@H](N)CC(=O)O)C(C)C)C(=O)N[C@@H](Cc1ccc(N)cc1)C(=O)N1CCC[C@H]1C(=O)N[C@@H](Cc1ccccc1)C(=O)O` (H-DRVYI[Phe(4-NH2)]PF-OH): the “activity, negative = inhibition” value was inactive: 17.1% [at 60.1 µM]. Same read-out and setting: then `O=C(O)C1CC(CCCP(=O)(O)O)CCN1` (stereo unspecified), with inactive: 12.9% [at 60.1 µM]. Consider `O=c1c(O)c(-c2ccc(O)c(O)c2)oc2c(OC[C@@H]3O[C@@H](O)[C@@H](O)[C@H](O)[C@H]3O)c(O)cc(O)c12`, for which the Potency is active: 0.316 µM.
